Measured values: a collection of fitness landscapes (doi:10.1016/j.celrep.2020.107928)
Over roughly 81,000 sequences, “one-hybrid fitness for binding NBS DNA” has its median near -0.1; the highest 2% begin near 0.36. The list shows a part of the results.

B1: Caulobacter ParB omega fusion; a variant is named by its letters at X, in order, B8GW30 (parent)
chain: MESVVVGEPGMSEGRRGLGRGLSALLGEVDAAPAQAPGEQLGGSREAPIEILQRNPDQPRRTFREEDLEDLSNSIREKGVLQPILVRPSPDTAGEYQIVAGERAWRAAQRAGLKTVPIMVRELDDLAVLEIGIIENVQRADLNVLEEALSYKVLMEKFERTQENIAQTIGKSXSHVANXMRLLXLPDEVQSYLVSGELTAXHARAIAAAADPVALAKQIIEGGLSVRETEALARKAPNLSAGKSKGGRPPRVKDTDTQALESDLSSVLGLDVSIDHRGSTGTLTITYATLEQLDDLCNRLTRGI

Variants of: B1
Test: one-hybrid fitness for binding NBS DNA (the Noc-binding site; scaled: cognate 1, non-cognate 0); higher = stronger binding
Settings: with NBS DNA site
Procedure, shortened: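 Fitness here means the log change in variant-to-wild-type read ratio between plasmids sequenced before and after selection. That scale was set so cognate equals 1 and non-cognate equals 0. The selection was a bacterial one-hybrid screen of Caulobacter ParB libraries, four specificity codons randomised, in E. coli USO carrying a HIS3 reporter with the site 19 bp from the promoter, grown 48 hours at 37°C on M9-minus-histidine with 0.1 mM IPTG and 5 mM 3-AT.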

one-hybrid fitness for binding NBS DNA, 0.309:
RRQV

one-hybrid fitness for binding NBS DNA, 0.226:
QRFQ

one-hybrid fitness for binding NBS DNA, 0.356:
QAKN

one-hybrid fitness for binding NBS DNA, 0.302:
QSKG

one-hybrid fitness for binding NBS DNA, 0.379:
QTRD

one-hybrid fitness for binding NBS DNA, 0.282:
QYRI

one-hybrid fitness for binding NBS DNA, 0.277:
RAVR

one-hybrid fitness for binding NBS DNA, 0.645:
QSKS

one-hybrid fitness for binding NBS DNA, 0.3:
PRKT

one-hybrid fitness for binding NBS DNA, ≤ 0.2:
ILCI
HLDL
LGWT
PFTF
PRMM
GAMG
TQSG
DSWC
TLWY
NVSN
VEEC
TNSY
QFVS
QQAL
DFCS
MTAS
STTD
SCLD
IPNA
LLWF
VMAS
HIRP
VGHD
NVTY
WPGT
GSVF
YRTP
LICC
CPIE
ETVC
MGPS
IHHC
TVCT
HPAD
EVKV
WRGR
GSKY
SLWP
IFQT
AKNN
ISYM
KRFF
KMRG
LSSC
FINK
WPAY
TIQT
NIKT
LTRI
ACYV
CHHR
MTTM
QAWN
YPWF
PLMI
RCPH
TVTL
HPMF
FKPF
VANF
RHPI
SLKS
DAST
IRRF
RKGQ
NILR
KYMS
RVNM
EVTP
GGRT
TLKP
SMYR
DCRF
NTPV
ITPV
PFPS
LLRL
IRSH
GQTI
VNSW
FIRG
ILWT
ILKV
NEHN
TQDC
ITNM
SDCL
HMYG
PMSQ
YWTG
IAQR
SHEN
MRLD
APCS
AQAS
GAPI
QAHF
LTVY
PSQT
HSGR
TPNM
HGHS
LPFP
RDEA
RVDW
IPDL
RCWW
LTSP
KPTC
KYHS
SARE
LQEY
HFQT
ECAA
KRWC
GNKQ
NNTF
WLKT
CLHV
GKVN
FVCS
GQCW
GHHP
AGIR
SYHH
CLRF
FDYV
HEHG
YGSA
RALL
CVKC
CIEC
KGIW
FWAS
WSTK
SMFG
HWPM
MLST
LTRK
AEPQ
RQCM
QQID
RTID
IAQG
SWTC
TAQA
VAKV
NWNT
VSRG
SHQG
PTTI
QNAE
PIRR
GDTV
RPPP
RNMP
VSWW
YLQS
FVPS
NGMC
RIFT
IVSG
MAQV
FFNC
TPTR
LMDY
NRKC
WISE
IPQM
TPWR
RYAG
MHQT
RYMD
YPTF
PEMA
YSES
RDSR
HRHN
ISGT
LLGY
CTWR
SQNK
RDWV
LGAF
RIVM
GSDE
HQRW
FYSS
REYN
AAPF
DMMR
GRRG
WMAC
CYSI
RWTV
VYYR
TTVP
HGME
GGGK
VIPE
LGTY
RQWA
VGQC
TAYD
MDQR
EHNF
TGNV
TWMD
NGER
RTAD
TNRH
HVRV
QHYL
KDQA
PTAW
ASFV
CIMC
TIQL
PVVM
MTEN
AGTQ
SCLH
IEFV
PSPT
WLAV
EPAD
MAIG
PGSY
QVTH
HGDH
FRHT
APTL
LRFY
FPAC
FSSA
FDPN
NLLE
FHLS
LRAM
RGWA
GRLR
KQIR
CKWT
ADDR
IDHR
QEEC
WNGT
YVKY
RNTC
RVEE
QGMS
RPRP
LIFR
YRRP
AAVE
NTLV
CDST
FDCR
RPRN
CRGC
WFYS
EATC
PPTM
LIHG
RHDC
ICLS
PKIM
NSDF
PWTG
TMMV
DMHT
FYCT
PAWC
THRV
LQPH
VYTE
GLWT
RSKG
HTES
EHMI
RGHR
QQTK
LPEF
IRHL
AVHY
WSWG
LPPL
PNVV
DAVH
RPHQ
FAIT

one-hybrid fitness for binding NBS DNA, 0.247:
RLFR

one-hybrid fitness for binding NBS DNA, 0.548:
RTAR

one-hybrid fitness for binding NBS DNA, 0.337:
QLRV

one-hybrid fitness for binding NBS DNA, 0.207:
QRYE

one-hybrid fitness for binding NBS DNA, 0.44:
QPSR

one-hybrid fitness for binding NBS DNA, 0.38:
RQAS
